Results published in publication PMC9636508.
These are yes or no findings as the source states them, for the method shown. For some assays here: In cells and extracts the contact can be indirect. Some entries that bind do so weakly or less than the wild type. Values belong to the substance of their own block, whether it stands above or below them.

Protein sequences, listed by entry. Tags and fused reporters are not part of them. Lines headed by an entry give the natural chain unless they say otherwise; changes in a name come on top. Residues count along the entry.
UniProt Q9UNF0: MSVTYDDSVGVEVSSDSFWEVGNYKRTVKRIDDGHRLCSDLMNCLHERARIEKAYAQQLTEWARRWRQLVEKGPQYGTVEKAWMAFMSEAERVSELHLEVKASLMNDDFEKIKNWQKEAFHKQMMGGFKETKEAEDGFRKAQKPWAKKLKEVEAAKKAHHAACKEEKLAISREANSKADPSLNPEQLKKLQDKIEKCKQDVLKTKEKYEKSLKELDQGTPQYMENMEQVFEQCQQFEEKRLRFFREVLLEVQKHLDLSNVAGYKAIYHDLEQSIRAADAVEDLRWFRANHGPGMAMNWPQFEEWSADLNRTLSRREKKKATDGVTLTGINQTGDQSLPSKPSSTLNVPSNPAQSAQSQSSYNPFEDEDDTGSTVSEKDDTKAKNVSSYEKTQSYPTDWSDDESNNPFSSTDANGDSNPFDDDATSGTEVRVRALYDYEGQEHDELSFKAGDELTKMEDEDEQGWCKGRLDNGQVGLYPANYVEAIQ
PACSIN2 SH3 domain (residues 430-486), purified: residues 430-486 of Q9UNF0
UniProt Q53SF7: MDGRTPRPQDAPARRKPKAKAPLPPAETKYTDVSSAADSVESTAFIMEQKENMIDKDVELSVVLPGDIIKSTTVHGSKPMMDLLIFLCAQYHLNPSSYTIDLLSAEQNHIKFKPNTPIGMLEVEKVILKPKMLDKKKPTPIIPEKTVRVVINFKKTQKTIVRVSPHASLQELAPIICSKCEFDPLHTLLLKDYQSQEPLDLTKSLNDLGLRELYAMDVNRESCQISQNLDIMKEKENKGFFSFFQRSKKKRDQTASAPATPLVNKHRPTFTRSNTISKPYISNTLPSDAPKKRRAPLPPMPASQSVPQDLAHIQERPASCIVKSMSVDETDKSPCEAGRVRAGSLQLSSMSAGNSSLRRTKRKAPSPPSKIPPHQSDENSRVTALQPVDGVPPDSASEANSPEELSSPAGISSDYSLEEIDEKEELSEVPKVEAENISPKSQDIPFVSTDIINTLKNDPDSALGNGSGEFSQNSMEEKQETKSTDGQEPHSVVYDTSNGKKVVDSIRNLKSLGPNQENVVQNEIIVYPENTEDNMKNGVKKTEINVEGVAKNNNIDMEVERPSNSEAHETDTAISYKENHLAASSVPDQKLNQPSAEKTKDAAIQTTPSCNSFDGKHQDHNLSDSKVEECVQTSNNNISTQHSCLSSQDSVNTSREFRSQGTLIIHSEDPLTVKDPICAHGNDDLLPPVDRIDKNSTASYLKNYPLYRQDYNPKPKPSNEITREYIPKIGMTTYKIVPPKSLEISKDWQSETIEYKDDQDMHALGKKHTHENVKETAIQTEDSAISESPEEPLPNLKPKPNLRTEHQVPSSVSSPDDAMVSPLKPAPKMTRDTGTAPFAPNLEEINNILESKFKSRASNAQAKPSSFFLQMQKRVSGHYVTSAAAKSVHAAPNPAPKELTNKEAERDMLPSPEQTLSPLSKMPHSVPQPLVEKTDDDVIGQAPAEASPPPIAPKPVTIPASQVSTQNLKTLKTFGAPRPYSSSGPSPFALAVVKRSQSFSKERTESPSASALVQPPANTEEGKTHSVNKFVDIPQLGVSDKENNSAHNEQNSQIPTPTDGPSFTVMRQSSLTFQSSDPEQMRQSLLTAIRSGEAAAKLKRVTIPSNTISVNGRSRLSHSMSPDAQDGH

Tests used:
[1] = target: GST-SH3 (GST-fused SH3 domain of PACSIN2) (human) (UniProt Q9UNF0); experiment: pull-down; GST pull-down with the GST-fused SH3 domain of PACSIN2; methods not shown
[2] = target: PACSIN2 wild type, overexpressed (human) (UniProt Q9UNF0); experiment: co-IP; K562 cells transfected with expression plasmids, lysed after 24 h in NETN buffer (150 mM NaCl, 0.5 mM EDTA, 50 mM Tris pH 7.5, 0.5% NP-40); streptavidin-coated beads or protein A-agarose with primary antibody; western blot
[3] = target: PACSIN2 (endogenous) (human (endogenous in K562)) (UniProt Q9UNF0); experiment: co-IP; endogenous proteins; K562 cells
[4] = target: PACSIN2 SH3 domain (residues 430-486), purified (human) (UniProt Q9UNF0); experiment: NMR titration; 1H-15N HSQC, 298 K; unlabelled Cobll1-NT and SH3BP1-CT added to 50 uM 15N-labelled PACSIN2 SH3 domain (1:0:0, 1:0:1, 1:1:0, 1:1:1; replacement titration); 50 mM sodium phosphate, 100 mM NaCl, 1 mM TCEP, pH 6.3; both purified
[5] = target: T1, SH3BP1 wild type, overexpressed (UniProt Q9Y3L3); experiment: co-IP; K562 cells transfected with expression plasmids, lysed after 24 h in NETN buffer (150 mM NaCl, 0.5 mM EDTA, 50 mM Tris pH 7.5, 0.5% NP-40); streptavidin-coated beads or protein A-agarose with primary antibody; western blot
T1 sequence: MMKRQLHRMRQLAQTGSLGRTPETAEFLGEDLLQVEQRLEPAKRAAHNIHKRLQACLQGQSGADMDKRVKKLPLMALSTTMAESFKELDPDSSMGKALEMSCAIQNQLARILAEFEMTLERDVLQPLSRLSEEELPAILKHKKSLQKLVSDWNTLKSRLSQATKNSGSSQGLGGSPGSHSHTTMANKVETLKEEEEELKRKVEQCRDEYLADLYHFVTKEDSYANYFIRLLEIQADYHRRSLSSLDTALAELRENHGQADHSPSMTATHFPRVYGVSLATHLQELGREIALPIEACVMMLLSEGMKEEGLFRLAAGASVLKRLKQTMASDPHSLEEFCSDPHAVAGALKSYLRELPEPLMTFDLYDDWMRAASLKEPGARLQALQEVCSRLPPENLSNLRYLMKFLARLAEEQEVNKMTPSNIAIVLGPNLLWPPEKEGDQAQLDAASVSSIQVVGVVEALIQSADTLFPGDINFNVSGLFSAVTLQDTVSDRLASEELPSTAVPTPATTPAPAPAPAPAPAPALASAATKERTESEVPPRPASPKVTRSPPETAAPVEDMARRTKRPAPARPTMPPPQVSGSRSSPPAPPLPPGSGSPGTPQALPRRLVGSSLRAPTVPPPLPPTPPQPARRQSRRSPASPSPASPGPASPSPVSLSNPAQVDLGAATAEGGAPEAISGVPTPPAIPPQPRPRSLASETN

- binding [1]: binds
- binding [2]: binds
Substance: Cobll1 wild type, overexpressed (from UniProt Q53SF7 1-1128)

- binding [3]: binds
Substance: Cobll1 (endogenous) (from UniProt Q53SF7 1-1128)

- binding [4]: binds
Substance: Cobll1-NT (N-terminal region of Cobll1, residues 175-370) (from UniProt Q53SF7 175-370) (domain or fragment)

- binding [5]: binds
Substance: PACSIN2 wild type, overexpressed (from UniProt Q9UNF0 1-486)
